Measurements as given in article PMC9959916.
Changes are numbered by the printed parent chain. Results are given in words; binding and its absence hold for the method and conditions named. Some entries that bind do so weakly or less than the wild type. Where a sequence is shown, tags or fusion partners need not be part of it.

By UniProt entry, the sequences of proteins in these tests, tags left out.
UniProt Q8MKI8: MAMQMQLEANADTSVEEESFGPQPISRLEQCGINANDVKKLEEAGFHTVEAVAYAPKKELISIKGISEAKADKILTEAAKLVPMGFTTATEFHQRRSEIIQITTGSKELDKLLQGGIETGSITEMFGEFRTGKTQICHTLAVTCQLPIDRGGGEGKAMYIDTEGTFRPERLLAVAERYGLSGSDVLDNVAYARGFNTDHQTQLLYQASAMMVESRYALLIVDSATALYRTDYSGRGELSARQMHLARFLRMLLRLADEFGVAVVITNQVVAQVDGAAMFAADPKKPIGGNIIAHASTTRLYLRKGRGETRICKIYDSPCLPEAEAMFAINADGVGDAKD

Assays:
Assay in all cases: two-hybrid; mammalian two-hybrid in HeLa cells: pM (Gal4 DNA-binding domain)-BRCA2 peptide, pVP16-canine RAD51, pG5-Luc firefly luciferase reporter, normalised to Renilla (pRL-TK); read two days after transfection
[1] = target: T1, Gal4 DNA-binding domain-fused cBRC1-HCR-BRC2 3E (S1105E, S1122E, T1127E) (canine (Canis lupus familiaris)) (UniProt Q8MKI9)
T1 sequence: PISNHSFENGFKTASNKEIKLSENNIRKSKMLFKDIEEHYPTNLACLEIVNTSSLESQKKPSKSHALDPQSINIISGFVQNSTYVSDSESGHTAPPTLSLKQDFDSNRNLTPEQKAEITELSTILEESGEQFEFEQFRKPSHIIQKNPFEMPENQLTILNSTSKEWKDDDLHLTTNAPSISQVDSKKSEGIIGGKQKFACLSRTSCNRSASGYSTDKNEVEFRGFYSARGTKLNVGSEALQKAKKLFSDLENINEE

[2] = target: T2, Gal4 DNA-binding domain-fused cBRC1-HCR-BRC2 S1122A (canine (Canis lupus familiaris)) (UniProt Q8MKI9)
T2 sequence: T1 sequence with E113S, E130A, E135T

[3] = target: T3, Gal4 DNA-binding domain-fused cBRC1-HCR-BRC2 S1122E (canine (Canis lupus familiaris)) (UniProt Q8MKI9)
T3 sequence: T1 sequence with E113S, E135T

[4] = target: T4, Gal4 DNA-binding domain-fused cBRC1-HCR-BRC2 S1114P (canine (Canis lupus familiaris)) (UniProt Q8MKI9)
T4 sequence: T1 sequence with E113S, S122P, E130S, E135T

[5] = target: T5, Gal4 DNA-binding domain-fused cBRC1-HCR-BRC2 S1105A (canine (Canis lupus familiaris)) (UniProt Q8MKI9)
T5 sequence: T1 sequence with E113A, E130S, E135T

[6] = target: T6, Gal4 DNA-binding domain-fused cBRC1-HCR-BRC2 3A (S1105A, S1122A, T1127A) (canine (Canis lupus familiaris)) (UniProt Q8MKI9)
T6 sequence: T1 sequence with E113A, E130A, E135A

[7] = target: T7, Gal4 DNA-binding domain-fused HCR (canine BRCA2 1101–1133 aa) (canine (Canis lupus familiaris)) (UniProt Q8MKI9)
T7 sequence: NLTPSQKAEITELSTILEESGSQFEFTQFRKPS

- binding [1]: binds
- binding [2]: binds
- binding [3]: binds
- binding [4]: binds
- binding [5]: binds
- binding [6]: binds
- binding [7]: no binding
Substance: VP16-fused canine RAD51 (from UniProt Q8MKI8 1-339)
